Data from PubChem BioAssay AID1159614 (National Center for Advancing Translational Sciences (NCATS), 2016).
Screen size: about 45,000 compounds; about 65 (0.1%) were called active. Calls follow the shape of the dose curve; as a rule, active = well fitted activation curve with a large enough effect; inconclusive = small, poorly fitted or top-dose-only effect; inactive = no such curve, though single readings can be large or run the other way. The list shows a part of the results.

Target: Galactocerebrosidase (Homo sapiens) (UniProt P54803)
Chain of UniProt P54803 (P54803 whole entry, looked up): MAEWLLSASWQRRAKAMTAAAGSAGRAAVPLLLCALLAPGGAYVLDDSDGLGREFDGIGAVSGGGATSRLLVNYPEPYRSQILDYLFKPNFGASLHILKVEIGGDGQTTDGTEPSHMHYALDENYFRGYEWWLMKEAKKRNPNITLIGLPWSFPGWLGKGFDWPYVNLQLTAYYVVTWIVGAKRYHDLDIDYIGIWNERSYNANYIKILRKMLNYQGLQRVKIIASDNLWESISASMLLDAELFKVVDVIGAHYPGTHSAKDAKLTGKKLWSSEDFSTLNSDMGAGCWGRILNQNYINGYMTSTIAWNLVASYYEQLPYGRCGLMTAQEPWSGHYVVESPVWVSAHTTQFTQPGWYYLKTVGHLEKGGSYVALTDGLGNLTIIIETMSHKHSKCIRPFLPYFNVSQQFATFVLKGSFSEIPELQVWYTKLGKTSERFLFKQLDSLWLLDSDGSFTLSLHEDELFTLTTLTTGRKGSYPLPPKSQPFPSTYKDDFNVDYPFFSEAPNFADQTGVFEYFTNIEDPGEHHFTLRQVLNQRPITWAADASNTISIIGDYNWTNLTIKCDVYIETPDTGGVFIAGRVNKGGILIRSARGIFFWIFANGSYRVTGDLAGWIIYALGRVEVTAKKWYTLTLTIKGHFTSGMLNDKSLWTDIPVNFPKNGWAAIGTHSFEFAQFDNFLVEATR
Assay: A Novel Cell-Based Assay to Identify Small Molecules for B -Galactocerebrosidase; also: 0% is about no effect; nearly all actives have a fitted effect of over 65% in size
Details: 145M-Twi-hGALC-G270D cells, HMU-beta-Gal fluorescence, 48 h; series mostly up to 57.5 µM; activation: at the top concentration
Procedure, shortened: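 qHTS, 1536-well; 145M-Twi-hGALC-G270D cells (WT line also made) in DMEM/F12 + 10% FBS; compound incubation on live cells; HMU-β-gal 0.1 mM final, pH 5.2, NaTC; carbonate stop; fluorescence increase = enhanced residual activity.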

activation, inactive:
COc1cc(CNCCSc2nnnn2C)ccc1OCc1ccc(Cl)cc1Cl 5.58%
COc1cc(NC(=O)N2CCC(CN3CCCCCC3)CC2)cc(OC)c1OC -6.64%
CCc1ccc(NC(=O)Cn2cc(S(=O)(=O)c3ccc(F)cc3)c(=O)c3cc(OC)ccc32)cc1 -13.1%
CC(=O)c1ccc(NC(=O)CCc2c(C)nn(-c3ccc4nnc(C)n4n3)c2C)cc1 2.07%
CC(C)CC(C(=O)NCC1CCN(Cc2ccc(F)cc2)CC1)N1Cc2ccccc2C1=O (configuration not stated) -7.92%
COc1ccc(NC(=O)C2CCC(CNS(=O)(=O)c3ccc(Br)s3)CC2)c(OC)c1 (configuration not stated) -7.71%
CCn1cc(C(=O)N2CCN(c3cc(Cl)ccc3C)CC2)c(=O)c2cc(S(=O)(=O)N3CCCCC3)ccc21 -10.5%
O=C(NCCn1cc(SCc2ccc(F)cc2)c2ccccc21)c1cccs1 1.23%
CC(C)Nc1nc2c(-c3cccc(Br)c3)nnn2c2ccccc12 -11.4%
Cc1ccccc1Cn1c(=O)n(CCC(=O)NCc2ccco2)c(=O)c2sccc21 -14.7%
COC(=O)C1=C(C)N(C(C)C)C(=O)C1(NC(=O)c1ccc(C(C)(C)C)cc1)C(F)(F)F (configuration not stated) -1.3%
O=C(CSc1nc(-c2ccccc2)nc2cc(=O)[nH]n12)Nc1ccccc1 12.8%
Cc1ccccc1C(=O)N1c2ncnn2C2(CCCCC2)[C@@H]2CCCC[C@@H]21 -14.3%
CCc1nc(-c2ccc(C)c(S(=O)(=O)N3CCN(c4ccc(C(C)=O)cc4)CC3)c2)no1 -27.4%
Cn1nnnc1SCCNCc1ccc(Cl)c(Cl)c1 -11.2%
COc1ccccc1NC(=O)C1=C(C)Nc2nc(-c3ccco3)nn2C1c1ccccc1F (configuration not stated) -7.83%
CCCc1cc(=O)[nH]c(Nc2ccc(OCC)cc2)n1 -15.2%
CCOc1ccc(C(=O)Nc2ccc(-n3nncc3-c3ccc(OC)cc3)cc2)cc1 -13.7%
COc1cccc(CCNC(=O)c2cnc3sc(N4CCOCC4)nn3c2=O)c1 -18.2%
Cc1cccc(S(=O)(=O)c2cn(C)c3cc(N4CCN(c5ccccc5)CC4)c(F)cc3c2=O)c1 7.65%
Cc1ccc(Cn2c(C)c3cnn(CC(=O)NCCc4ccc(Cl)cc4)c(=O)c3c2C)cc1 -4.62%
Cc1ccc(CN2CCCn3nc(C(=O)NCCc4cccc(C)c4)cc3C2=O)cc1 -15.1%
CCc1nc(SC)ncc1C(=O)N1CCN(c2cc(C)ccc2C)CC1 5.81%
CCOC(=O)c1c(S(=O)(=O)N2CCCC(C(=O)NCc3ccccc3OC)C2)c(C)n(C)c1C (configuration not stated) -21%
Cc1ccc(NC(=O)c2ccc(=O)n(Cc3ccccc3C)c2)c(C)c1 -10.1%
Cc1ccc(CN2CCCn3nc(C(=O)NCCc4ccccc4Cl)cc3C2=O)cc1 -8.46%
COc1cccc(CNC(=O)C2CCCN(c3nc4ccccc4n4cccc34)C2)c1 (configuration not stated) -43.9%
Cc1nn(C)c2c1c(-c1ccccc1)cc(=O)n2CC(=O)NC(C)C -7.68%
Cc1ccc(CNC(=O)c2ccc3c(O)c(S(=O)(=O)c4ccc(Cl)cc4)c(=O)[nH]c3c2)cc1 -19.8%
COc1ccc(CCNCc2ccc3c(c2)n(C)c(=O)n3C)cc1OC -13.7%
Cc1ccc(-c2nc(N3CCCC(C)C3)c3ccccc3n2)cc1 (configuration not stated) -8.92%
NC(=O)C1CCN(S(=O)(=O)c2ccc(N3CCCCS3(=O)=O)cc2)CC1 -7.12%
CCc1ccccc1NC(=O)CSc1nc2c(oc3ccccc32)c(=O)n1C -13%
CCCOc1ccc(C2CC(=O)Nc3c2c(=O)n(C)c(=O)n3C)cc1OC (configuration not stated) -11.7%
COCC(C)Nc1ncnc2c1cnn2-c1ccc(C)c(C)c1 (configuration not stated) -15%
COc1ccc(-n2nc(C(=O)NCc3ccc(F)cc3Cl)c3c4ccccc4n(C)c3c2=O)cc1Cl -15%
CCOc1ccc(N2CC(NC(=O)C3CC3)CC2=O)cc1 (configuration not stated) -1.41%
COc1ccc(C)cc1NC(=O)c1cc(S(=O)(=O)N2CCN(c3cccc(C)c3C)CC2)ccc1F 2.66%
Clc1ccc(Nc2c(-c3ccccc3Cl)nc3ccc(Cl)cn23)cc1 -2.32%
Cc1ccc(C(=O)Nc2cccc(C(=O)OCc3cc(=O)n4nc(C5CC5)sc4n3)c2)cc1 -11.3%
Cc1c(C(=O)Nc2ccccc2Cl)oc2ccc(S(=O)(=O)N3CCCCC3)cc12 1.26%
CCCn1c2ccc(F)cc2c2nnc(SCCN(CC)CC)nc21 -30.9%
Cc1cccc(C(=O)Oc2c(Sc3ccccc3)c(C)nn2C(C)(C)C)c1 -21.5%
Cn1c(=O)c(=O)n(C)c2cc(S(=O)(=O)N3CCN(c4ccccc4)CC3)ccc21 -10.3%
CC(NC(=O)c1ccc2c(c1)sc1nc(-c3ccccc3)cn12)C12CC3CC(CC(C3)C1)C2 (configuration not stated) -6.3%
CCCCN(CC)CCCNC(=O)Cn1ncc2c3ccccc3n(Cc3ccc(F)cc3)c2c1=O -4.34%
CCc1nn(CC(=O)Nc2ccc(NC(C)=O)cc2)c(=O)c2cc3sccc3n12 -15.1%
COc1ccc(CNC(=O)CSc2c3c(nc4ccc(Cl)cc24)CCCC3)cc1 0.972%
COc1ccc(S(=O)(=O)NCc2nc3nc(C)cc(C)n3n2)cc1OC -12.5%
COc1ccc(Nc2c3c(nc4nncn24)CCC3)cc1OC 3.11%
Cc1ccc(S(=O)(=O)N(CCc2ccccc2)CC(=O)Nc2ccc(Br)cc2)cc1 -10.7%
CN(C)CCN(Cc1ccsc1)c1ccccn1 -7.62%
COCCNC(=O)CN1C(=O)c2cccnc2Oc2ccc(Cl)cc21 -5.72%
CCOC(=O)c1ccc(N2C(=O)c3n[nH]c(-c4ccco4)c3C2c2cccc(O)c2)cc1 (configuration not stated) -1.98%
O=C(Cn1cnc2onc(-c3ccc(Cl)cc3)c2c1=O)Nc1ccc(F)cc1 10%
COc1ccc(-c2nc(CNS(=O)(=O)c3cccc(F)c3)cs2)cc1 -26.5%
Cc1cccc(NC(=O)c2oc3ccccc3c2NC(=O)Cc2coc3ccc(C(C)C)cc23)c1 21.9%
CCc1ccccc1NC(=O)Cn1c(SCc2ccc(F)cc2)nc2ccncc21 -5.28%
COc1ccc(-c2nc(CCNC(=O)c3ccc(Br)o3)cs2)cc1 -8.38%
O=[N+]([O-])c1cc(-c2nc(-c3ccccc3)no2)ccc1N1CCOCC1 -6.85%
CCOc1ccccc1NC(=O)C1=C(C)Nc2ncnn2C1c1ccc(C)o1 (configuration not stated) -11.7%
CCc1cccc(CC)c1NC(=O)CCS(=O)(=O)c1ccc2c(c1)CCN2C(C)=O -7.79%
